# Source: ChEMBL document CHEMBL4888484, “Replenishing the malaria drug discovery pipeline: Screening and hit evaluation of the MMV Hit Generation Library 1 (HGL1) against asexual blood stage Plasmodium falciparum ,using a nano luciferase reporter read-out” (2022)
# The whole screen tested about 150,000 compounds, of which about 540 (0.36%) showed an effect of 50% or more. The list shows a part of the results.
# Tested on: Plasmodium falciparum
# Assay: Primary screen in NF54 nanoGlo assay, in single point, at 2uM, 72h; a lower Z score goes with more inhibition
# Assay type: functional, Erythrocyte
# Settings: timepoint 72 hour
Compound,% Inhibition [%],Z score
CN(CC(=O)Nc1cc(C2CCCC2)nn1-c1ccccc1)Cc1ccco1,-6,0.65
Cc1cc(C[C@H](C)Nc2ccc(C(F)(F)F)cn2)n[nH]1,5,-0.65
Cc1ccc(CN2CCC(N(C(=O)NCCc3ccccc3)C3CCOCC3)CC2)cc1C,3,-0.43
O=c1ccc(-c2ccc3c(c2)OCO3)nn1Cc1cccc2ccccc12,2,-0.43
CCS(=O)(=O)N1CCC[C@H](Cn2c(C)cnc2C2CC2)C1,-14,1.78
O=C(C1=CCCC1)N1CCn2c(nnc2C(F)(F)F)C1,-9,1.15
O=C(Nc1ccncc1NC(=O)c1ccccc1)c1ccccc1,4,-0.58
CN1CC[C@H](NS(=O)(=O)CCC(C)(C)C(F)(F)F)CC1=O,-7,1.2
FC(F)(F)c1ccc2sc(NCCN3CCOCC3)nc2c1,-3,0.32
O=C1CCCc2cc(C(=O)Nc3ccn(CC(=O)N4CCOCC4)n3)ccc2N1,9,-1.11
Cc1ccccc1Cn1cnc2c1c(=O)n(CC1CC1)c(=O)n2-c1cccc(Cl)c1,10,-1.21
CS(=O)(=O)N1CC[C@H](C2CCN(c3ncccn3)CC2)C1,-14,1.33
Cc1cccc(NC(=O)C2CCCN(CN3C(=O)NC(c4ccccc4)(C(F)(F)F)C3=O)C2)n1 (centres undefined),-30,3.58
CC(=O)NCC[C@H]1Cn2cccc2C1=O,-5,0.61
Cc1ccccc1[C@H]1CCCN(C(=O)Cc2cccnc2)C1,13,-1.7
Cc1n[nH]c(C)c1CC(=O)N[C@@H](Cc1ccccc1)C(N)=O,-9,1.41
Cc1ccc2cc1Oc1cccc(c1)CO[C@H]1CN(C(=O)CCN3CCCC3=O)C[C@@H]1NC(=O)CN(C)C2=O,-16,2.97
Cc1c[nH]c([C@H](C)NS(=O)(=O)c2ccc(-c3onc(C)c3C)o2)n1,0,-0.03
CC(=O)N1CCC(C(=O)Nc2ccc(N3CCCCC3)cc2)CC1,18,-2.08
Cc1ncsc1C(=O)NCC1CCN(C(=O)C(=O)c2cccn2C)CC1,-26,2.39
O=C([C@@H]1COc2ccccc2O1)N1CCC(O)(CO)CC1,-17,2.21
O=C(c1nc(N2CCOCC2)ncc1Cl)N1CCc2ccccc21,12,-2.24
O=C1Nc2cc(C(=O)N3CCN(c4ccc(F)cc4)CC3)ccc2N2CCCC[C@@H]12,-2,0.35
CC(C)N(C(=O)[C@@H]1CCOc2ccc(Cl)cc21)C1CCOCC1,29,-3.91
O=C(c1ccncc1)N1CCC2(CC1)c1nc[nH]c1CCN2C(=O)C1CCC1,1,-0.16
CC1CN(c2cc(N3CCC(C)(O)CC3)ncn2)CC(C2CC2)O1 (centres undefined),8,-0.99

Compound,% Inhibition [%],Z score
COCCN1CC(=O)N[C@H]2CN(Cc3cncn3C)C[C@@H]2OCc2cccc(c2)Oc2cncc(c2)C1=O,-20,2.57
O=C(NC1(c2ccc(F)c(F)c2)CC1)C(F)F,-6,1.03
O=C(Nc1ccc(C(F)(F)F)cc1)[C@@H]1CCN(c2ccc(Cl)cc2Cl)C1=O,0,0.06
O=C(NCCN1CCN(c2ccccc2F)CC1)c1ccc(N2CCOc3ccc(Cl)cc32)s1,-9,1.16
O=C(CCCc1cn[nH]c1)NC[C@@H]1COc2ccccc2C1,-13,1.86
NC(=O)[C@H]1CCN(c2ncc(Br)c3ccc(F)cc23)C1,-4,0.34
Nc1cc(C(=O)NC[C@H]2CCN(C/C=C/c3ccccc3)C2)ccn1,-13,1.75
Cc1nc2cc(-c3cccc4ccnn34)ccc2s1,-21,2.11
Cc1cc(C)c(NCc2ccsc2)c(C)c1,-6,0.92
Cn1cc(Cl)cc1C(=O)N1CC(NC(=O)OCc2ccccc2)C1,-10,1.28
Cc1c[nH]c(CN(C)Cc2cc(C(C)C)on2)c(C)c1=O,2,-0.35
C[C@@H](CN(C)Cc1ccccc1)NC(=O)C1=COCCC1,-5,0.42
CCN1CCCN(C(=O)N[C@H]2CCN(CC(F)F)C2)CC1=O,11,-1.46
CC(C)c1n[nH]c([C@@H]2CN(Cc3nc4c(F)cccc4[nH]3)CCO2)n1,-12,1.8
Cn1c(CN2CCCCC2)nnc1C1CCN(c2cnccn2)CC1,-6,0.8
CCC1Oc2ccc(NC(=O)c3ccc(Cl)c(Cl)c3)cc2CN(C(C)CC)C1=O (centres undefined),1,-0.07
COc1ccccc1S(=O)(=O)N1CC(=O)C1,-15,3.07
CCCC[C@H](CC)C(=O)N1CCN(c2nc(CN3CCN(c4ccc(C)cc4)CC3)cc(=O)[nH]2)CC1,-12,1.4
O=C(NC1CCCC(C2CC2)C1)N1CCC2(CCOC2)C1 (centres undefined),-1,0.17
CC(C)[C@H]1CN(C)CCN1C(=O)c1cc(CN2CCC(O)CC2)on1,-11,1.02
CCOc1ccc(NC(=O)Cn2nc(-c3ccco3)c3sc(N4CCCCC4)nc3c2=O)cc1,4,-0.63
O=C(NC1CCCCCCC1)c1cccc(-c2cnn3cccnc23)c1,-6,0.86
CC[C@H](OC)C(=O)N1CCN(Cc2cc(C)cc(C)c2)C(=O)C1,-7,1.34
C[C@H]1CCc2nc3ncn(Cc4ccc(F)cc4Cl)c(=O)c3cc2C1,-20,1.87
CCN1CCN(Cc2cc3cc4c(cc3nc2-c2ccc(Cl)cc2)OCO4)CC1,-10,1.95
CN(CC1CCCN2CCCCC12)C(=O)CCC1N=C(O)N(Cc2ccc3c(c2)OCO3)C1=O (centres undefined),-18,2.34
